The values that follow come from a collection of fitness landscapes (doi:10.1126/science.1257360).

The chains are these.
B1: PhoQ; a variant is named by its letters at X, in order, P23837 (parent)
chain: MKKLLRLFFPLSLRVRFLLATAAVVLVLSLAYGMVALIGYSVSFDKTTFRLLRGESNLFYTLAKWENNKLHVELPENIDKQSPTMTLIYDENGQLLWAQRDVPWLMKMIQPDWLKSNGFHEIEADVNDTSLLLSGDHSIQQQLQEVREDDDDAEMTHSVAVNVYPATSRMPKLTIVVVDTIPVELKSSYMVWSWFIYVLSANLLLVIPLLWVAAWWSLRPIEALAKEVRELEEHNRELLNPATTRELTSLVRNLNRLLKSERERYDKYRTTLTDLTHSLKTPLXXLQXXLRSLRSEKMSVSDAEPVMLEQISRISQQIGYYLHRASMRGGTLLSRELHPVAPLLDNLTSALNKVYQRKGVNISLDISPEISFVGEQNDFVEVMGNVLDNACKYCLEFVEISARQTDEHLYIVVEDDGPGIPLSKREVIFDRGQRVDTLRPGQGVGLAVAREITEQYEGKIVAGESMLGGARMEVIFGRQHSAPKDE

The other results are listed elsewhere or left out.

The variants in this assay derive from B1. The experiment in a line: enrichment ratio after two sorts for PhoP signalling (ratio (wild type AVST 3.29)); higher = more functional. The conditions noted are these: with PhoP (E. coli).
Consider SCTD, for which the enrichment ratio was at most 0.25.
WSTS: the enrichment ratio is at most 0.25.
The figure for KESV is at most 0.25; for WVPH it is at most 0.25.
With KYAR, the enrichment ratio is at most 0.25.
As to GQFP, the enrichment ratio was at most 0.25.
On to HYAA, for which the enrichment ratio is at most 0.25.
The figure for TDHK is at most 0.25; for KNYI it is at most 0.25; for FLYM it is at most 0.25.
Regarding SEQQ, the enrichment ratio came out at 4.37.
For ISHH the value was at most 0.25; for QPMC, at most 0.25.
On to YSNV, for which the enrichment ratio was at most 0.25.
For QPQC the value was at most 0.25; for YFKN, at most 0.25.
With NSAN, the enrichment ratio was at most 0.25.
For FHFR the value was at most 0.25; for GFSC, at most 0.25.
For PQVD the value was at most 0.25; for EKVP, at most 0.25; for QDVP, at most 0.25.
The figure for PTVH is at most 0.25; for WGDV it is at most 0.25.
For the variant WIYV, the enrichment ratio was at most 0.25.
The figure for CFMQ is at most 0.25; for WFCV it is at most 0.25; for EFAH it is at most 0.25.
Turning to TKVW, the enrichment ratio is at most 0.25.
Regarding SPKH, the enrichment ratio is at most 0.25.
The figure for TTQV is 16.2.
For NIYY the value was at most 0.25; for QAWK, at most 0.25.
The figure for YTEG is at most 0.25; for VIIS it is at most 0.25.
With SQYM, the enrichment ratio was at most 0.25.
With THHM, the enrichment ratio worked out at 0.72.
The figure for EMMF is at most 0.25.
The figure for RWHM is at most 0.25; for GKHT it is at most 0.25; for HVRC it is at most 0.25.
For the variant KTKL, the enrichment ratio is 1.81.
For the variant TVID, the enrichment ratio was at most 0.25.
The figure for EFMT is at most 0.25; for NMQC it is at most 0.25.
The figure for IVWR is at most 0.25.
For PYTA, the enrichment ratio was at most 0.25.
For VIGV the value was at most 0.25.
For RNIM the value was at most 0.25.
Take HHND: the enrichment ratio is at most 0.25.
CFYW: the enrichment ratio was at most 0.25.
For IKVD the value was at most 0.25; for INSY, at most 0.25; for WMYA, at most 0.25.
Turning to NKLA, the enrichment ratio was at most 0.25.
Regarding LENL, the enrichment ratio was at most 0.25.
With GHHL, the enrichment ratio is at most 0.25.
The figure for KEMH is at most 0.25; for MRWW it is at most 0.25.
In the case of GTCK, the enrichment ratio is at most 0.25.
For IEGY the value was at most 0.25.
The figure for VTLW is at most 0.25; for RSMP it is at most 0.25.
As to PQVM, the enrichment ratio is at most 0.25.
The figure for MFQI is at most 0.25; for IHHV it is at most 0.25.
PPWR: the enrichment ratio was at most 0.25.
As to MFAD, the enrichment ratio is at most 0.25.
The figure for QEML is at most 0.25; for KDSC it is at most 0.25; for DGWT it is at most 0.25.
In the case of NDGC, the enrichment ratio was at most 0.25.
HVCK: the enrichment ratio was at most 0.25.
In the case of IPAA, the enrichment ratio was at most 0.25.
In the case of HDLK, the enrichment ratio is at most 0.25.
For YECT the value was 3.66.
For YCLC the value was 0.294.
Turning to AMNR, the enrichment ratio was at most 0.25.
The figure for SRYY is at most 0.25.
As for ELGF, the enrichment ratio is at most 0.25.
Turning to RRTN, the enrichment ratio is at most 0.25.
The figure for RYAG is at most 0.25; for SPEP it is at most 0.25; for SKAQ it is at most 0.25.
In the case of GHVW, the enrichment ratio was at most 0.25.
With PSKK, the enrichment ratio was at most 0.25.
GRIL: the enrichment ratio was at most 0.25.
Regarding ARYG, the enrichment ratio is at most 0.25.
For LQWY the value was at most 0.25.
For PIPP the value was at most 0.25.
FIGF: the enrichment ratio was at most 0.25.
Turning to KHVQ, the enrichment ratio was at most 0.25.
For GPAH, the enrichment ratio was at most 0.25.
Regarding HNGI, the enrichment ratio was at most 0.25.
The figure for DVLK is at most 0.25; for QNYL it is at most 0.25.
SDAN: the enrichment ratio came out at 2.41.
As to WCSS, the enrichment ratio was at most 0.25.
For SPPD the value was at most 0.25.
Consider RVPV, for which the enrichment ratio was at most 0.25.
The figure for AKTE is at most 0.25; for LDRR it is at most 0.25; for NDVK it is at most 0.25.
The figure for PEQG is at most 0.25; for TPYV it is at most 0.25.
On to IYST, for which the enrichment ratio is at most 0.25.
The figure for TPQN is at most 0.25; for QGRC it is at most 0.25; for FTKT it is at most 0.25.
For HGQM the value was at most 0.25; for DIYP, at most 0.25.
Turning to GDFD, the enrichment ratio is at most 0.25.
As for MLLH, the enrichment ratio was at most 0.25.
The figure for AGKP is at most 0.25; for DSCH it is at most 0.25; for PFEP it is at most 0.25.
The figure for DVMQ is at most 0.25; for YMPR it is at most 0.25; for MQWS it is 1.53.
The figure for QLFL is at most 0.25; for NKPI it is at most 0.25; for GGKM it is at most 0.25.
For the variant RRTF, the enrichment ratio is at most 0.25.
The figure for EYIQ is at most 0.25.
For FLPL the value was at most 0.25.
Take WSWN: the enrichment ratio was at most 0.25.
In the case of YVDL, the enrichment ratio is at most 0.25.
The figure for LWYV is at most 0.25; for DFIR it is at most 0.25; for FMDE it is at most 0.25.
Turning to AHQG, the enrichment ratio is at most 0.25.
In the case of GGFS, the enrichment ratio was at most 0.25.
For LMCR, the enrichment ratio was at most 0.25.
Regarding IDGS, the enrichment ratio is at most 0.25.
In the case of KNMA, the enrichment ratio is at most 0.25.
As for MNTP, the enrichment ratio is at most 0.25.
As for VIMK, the enrichment ratio is at most 0.25.
For the variant SIAR, the enrichment ratio stood at 11.2.
The figure for GQRD is at most 0.25; for RHCW it is at most 0.25.
Regarding WRGR, the enrichment ratio is at most 0.25.
The figure for ASYW is at most 0.25; for GCGR it is at most 0.25; for FTPQ it is at most 0.25.
For the variant AEYK, the enrichment ratio was at most 0.25.
The figure for TKNL is 4.01.
For RCQN the value was at most 0.25.
The figure for AQDC is at most 0.25; for EPCG it is at most 0.25.
Consider VNWH, for which the enrichment ratio was at most 0.25.
Take LQGK: the enrichment ratio is at most 0.25.
With IQPR, the enrichment ratio was at most 0.25.
Consider NPFC, for which the enrichment ratio is at most 0.25.
